# In PubChem BioAssay (Tox21):
# Values joined by “and” are separate entries in the source; they are usually repeats but may differ in a detail not shown here. Identical values can stand only once. Inconclusive results, whose numbers are uncertain, are shown with a selection of clear calls. For some assays here: Potencies beside an inconclusive call are fits to weak or partial responses and may not hold up. Active and inactive are the calls of the source. Unless noted, calls follow the shape of the dose curve; as a rule, active = well fitted curve in the direction sought with a large enough effect in the repeat runs; inconclusive = weak or mixed curves; inactive = no such curve, though single readings can be large; an effect the other way counts as inactive or inconclusive.
# Columns and labels:
# [1] = target: Androgen receptor (Homo sapiens) (UniProt P10275); assay: qHTS assay to identify small molecule antagonists of the androgen receptor (AR) signaling pathway (AID 743035; active = well fitted inhibition curve with a large enough effect in the signal ratio in the repeat runs, not every such curve was filed as active; inconclusive = weak or mixed curves, or effect the other way; inactive = no such curve, though single readings can be large or run the other way; the % refers to the signal ratio; also: potency is read from the fitted curve at half-maximal effect; as to activity change, negative = inhibition: % is scaled to controls: 0 for no effect and ±100 for the full control effect); conditions: HEK293 AR-UAS-bla, R1881-stimulated, beta-lactamase FRET, 16 h
# Chain of UniProt P10275 (P10275 whole entry, looked up): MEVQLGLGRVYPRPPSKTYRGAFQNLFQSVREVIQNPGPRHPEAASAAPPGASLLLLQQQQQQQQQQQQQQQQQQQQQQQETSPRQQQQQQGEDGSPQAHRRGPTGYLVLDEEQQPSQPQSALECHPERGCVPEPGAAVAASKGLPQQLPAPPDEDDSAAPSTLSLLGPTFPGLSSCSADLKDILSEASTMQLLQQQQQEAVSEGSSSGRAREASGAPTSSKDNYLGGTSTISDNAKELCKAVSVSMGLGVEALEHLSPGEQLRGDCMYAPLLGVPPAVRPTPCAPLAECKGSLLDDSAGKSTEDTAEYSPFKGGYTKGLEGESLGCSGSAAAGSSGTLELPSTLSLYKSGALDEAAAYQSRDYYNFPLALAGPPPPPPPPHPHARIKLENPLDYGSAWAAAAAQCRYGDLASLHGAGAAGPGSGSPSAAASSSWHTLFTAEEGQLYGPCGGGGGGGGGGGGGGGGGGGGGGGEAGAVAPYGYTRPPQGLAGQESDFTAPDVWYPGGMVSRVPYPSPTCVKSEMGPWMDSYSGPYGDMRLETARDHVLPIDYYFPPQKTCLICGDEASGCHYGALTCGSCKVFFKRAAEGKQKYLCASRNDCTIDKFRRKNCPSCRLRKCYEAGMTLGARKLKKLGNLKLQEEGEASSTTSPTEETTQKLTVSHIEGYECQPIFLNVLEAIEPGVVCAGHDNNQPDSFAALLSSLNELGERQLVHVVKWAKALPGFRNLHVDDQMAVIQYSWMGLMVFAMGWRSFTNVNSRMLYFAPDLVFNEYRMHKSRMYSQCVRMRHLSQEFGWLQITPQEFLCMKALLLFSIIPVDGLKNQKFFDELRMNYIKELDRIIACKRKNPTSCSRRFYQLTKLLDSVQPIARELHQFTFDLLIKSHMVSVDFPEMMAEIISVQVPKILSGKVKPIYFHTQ
# In short: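 Reporter HEK293 cells were exposed to compounds and R1881 overnight (16 h, 37C); beta-lactamase activity was then quantified by FRET fluorescence.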
# [2] = qHTS assay to identify small molecule antagonists of the thyroid receptor (TR) signaling pathway - cell viability counter screen (AID 743064); conditions: GH3.TRE-Luc viability, CellTiter-Fluor, 24 h; activity change, negative = cytotoxic: at 70.3 µM (top of the series) unless noted; also: nearly all actives have a fitted effect of over 50% in size; also: potency is read from the fitted curve at half-maximal effect; as to activity change, negative = cytotoxic: % is scaled to controls: 0 for no effect and ±100 for the full control effect
# In short: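 CellTiter-Fluor readout, 30 min at 37 °C/5% CO2, following 23.5 h incubation of GH3.TRE-Luc cells with test compound and 1 nM T3 (final).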
# [3] = target: Estrogen receptor (Homo sapiens) (UniProt P03372); assay: qHTS assay to identify small molecule agonists of the estrogen receptor alpha (ER-alpha) signaling pathway (AID 743075; calls by dose curve;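 also: HEK293 GripTite cells with ER-alpha and UAS-driven beta-lactamase reporter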; also: potency is read from the fitted curve at half-maximal effect)
# Chain of UniProt P03372 (P03372 whole entry, looked up): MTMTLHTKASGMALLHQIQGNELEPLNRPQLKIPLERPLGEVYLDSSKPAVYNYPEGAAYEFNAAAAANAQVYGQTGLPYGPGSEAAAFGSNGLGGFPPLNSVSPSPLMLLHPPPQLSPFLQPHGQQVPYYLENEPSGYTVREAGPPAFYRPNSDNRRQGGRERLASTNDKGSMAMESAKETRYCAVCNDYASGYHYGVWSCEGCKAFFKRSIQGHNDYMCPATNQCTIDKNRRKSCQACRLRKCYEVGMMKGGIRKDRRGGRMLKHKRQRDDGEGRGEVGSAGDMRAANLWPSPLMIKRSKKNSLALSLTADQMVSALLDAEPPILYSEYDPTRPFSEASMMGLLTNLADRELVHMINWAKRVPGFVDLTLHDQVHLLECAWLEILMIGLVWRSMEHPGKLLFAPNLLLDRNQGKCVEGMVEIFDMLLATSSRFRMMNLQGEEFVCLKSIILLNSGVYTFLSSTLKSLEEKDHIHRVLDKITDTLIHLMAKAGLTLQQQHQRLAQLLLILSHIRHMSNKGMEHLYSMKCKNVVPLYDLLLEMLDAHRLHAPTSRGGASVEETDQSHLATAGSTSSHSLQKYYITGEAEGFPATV
# [4] = target: Estrogen receptor (Homo sapiens) (UniProt P03372); assay: qHTS assay to identify small molecule agonists of the estrogen receptor alpha (ER-alpha) signaling pathway using the BG1 cell line (AID 743079); conditions: BG1Luc4E2 cells, ERE-luciferase agonist, 22 h; activation: at 70.3 µM (top of the series) unless noted; also: nearly all actives have a fitted effect of over 20% in size; also: potency is read from the fitted curve at half-maximal effect; as to activation: % is scaled to controls: 0 for no effect and ±100 for the full control effect
# [5] = qHTS assay to identify small molecule antagonists of the estrogen receptor alpha (ER-alpha) signaling pathway using the BG1 cell line (AID 743080; calls by dose curve;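 also: BG1 cells stimulated with 17beta-estradiol alongside compound; potency is read from the fitted curve at half-maximal effect; nearly all actives have a fitted effect of over 25% in size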); conditions: BG1Luc4E2 ERE-luciferase antagonist mode, luminescence; activity change, negative = inhibition: at 70.3 µM (top of the series) unless noted
# In short: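 Readout is ONE-Glo luminescence, taken 30 min at room temperature after reagent addition, preceded by a CellTiter-Fluor viability read; BG1-Luc-4E2 cells had received compound and 17beta-estradiol for 21.5 h at 37 C.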
# [6] = target: Androgen receptor (Homo sapiens) (UniProt P10275); assay: qHTS assay to identify small molecule agonists of the androgen receptor (AR) signaling pathway (AID 743036; active = well fitted activation curve with a large enough effect in the signal ratio in the repeat runs, with a control signal flat, not every such curve was filed as active; inconclusive = weak or mixed curves, or effect the other way; inactive = no such curve, though single readings can be large or run the other way; the % refers to the signal ratio; also: potency is read from the fitted curve at half-maximal effect); conditions: HEK293 AR-UAS-bla GripTite, beta-lactamase FRET ratio, 16 h; activation: at 62.4 µM (top of the series) unless noted
# In short: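 Following a 4 h settling period, AR-UAS-bla HEK293 cells were dosed with compounds for 16 h at 37C. A 2 h room-temperature incubation with LiveBLAzer B/G FRET substrate preceded the fluorescence measurement.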
# [7] = target: Androgen receptor (Homo sapiens) (UniProt P10275); assay: qHTS assay to identify small molecule agonists of the androgen receptor (AR) signaling pathway using the MDA cell line (AID 743040; also: potency is read from the fitted curve at half-maximal effect; nearly all actives have a fitted effect of over 20% in size); conditions: MDA-kb2 AR-luc cells, MMTV luciferase, 16 h; activity change: at 70.3 µM (top of the series), stronger effect = higher value
# In short: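 Cell-based luciferase reporter: MDA-kb2, MMTV promoter (AR + GR response elements). 16 h compound exposure at 37C; ONE-Glo, 30 min RT, luminescence.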
# [8] = system: thyroid hormone receptor (rat, GH3 cells); assay: qHTS assay to identify small molecule agonists of the thyroid receptor (TR) signaling pathway (AID 743066; calls by dose curve; also: % is scaled to controls: 0 for no effect and ±100 for the full control effect); conditions: GH3.TRE-Luc cells, TR agonist luciferase, 24 h; activation: at 83.9 µM (top of the series) unless noted
# [9] = target: Androgen receptor (Homo sapiens) (UniProt P10275); assay: qHTS assay to identify small molecule antagonists of the androgen receptor (AR) signaling pathway using the MDA cell line (AID 743042; also: % is scaled to controls: 0 for no effect and ±100 for the full control effect; nearly all actives have a fitted effect of over 55% in size)
# In short: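 MDA-kb2 cells (human breast carcinoma, stably carrying an MMTV-luciferase reporter responsive to AR and GR) were plated at 3,000 cells/well and preincubated 5 hr at 37C, then given compound plus R1881 agonist for 16 h. ONE-Glo luminescence was read.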
# [10] = target: Estrogen receptor (Homo sapiens) (UniProt P03372); assay: qHTS assay to identify small molecule antagonists of the estrogen receptor alpha (ER-alpha) signaling pathway (AID 743069; active = well fitted curve in the direction sought with a large enough effect in the signal ratio in the repeat runs, not every such curve was filed as active; inconclusive = weak or mixed curves, or effect the other way; inactive = no such curve, though single readings can be large or run the other way; the % refers to the signal ratio; also: potency is read from the fitted curve at half-maximal effect); conditions: HEK293 ER-alpha-UAS-bla, beta-lactamase ratio, antagonist mode; activity, negative = inhibition: at 69.4 µM (top of the series) unless noted
# In short: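 A 17beta-estradiol challenge was applied right after compound transfer to ER-alpha-UAS-bla HEK293 cells previously kept in charcoal-stripped serum. Plates stood 18 hr at 37C and 5% CO2; fluorescence was read following 2 hr FRET substrate loading at room temperature.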
# [11] = qHTS assay to identify small molecule antagonists of the androgen receptor (AR) signaling pathway using the MDA cell line - cell viability counter screen (AID 743041; also: nearly all actives have a fitted effect of over 45% in size; also: potency is read from the fitted curve at half-maximal effect); conditions: MDA-kb2 viability, CellTiter-Fluor, 16 h, cells co-treated with R1881 androgen agonist; viability change, negative = cytotoxic: at 70.3 µM (top of the series) unless noted
# In short: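 In this qHTS counter assay, fluorescence intensity after CellTiter-Fluor addition indicated viability of MDA-kb2 AR-luc cells given compounds and R1881 for 16 h at 37C.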
# [12] = qHTS assay to identify small molecule antagonists of the estrogen receptor alpha (ER-alpha) signaling pathway using the BG1 cell line - cell viability counter screen (AID 743081); conditions: BG1Luc4E2 viability, CellTiter-Fluor, 22 h; activity change, negative = cytotoxicity: at 70.3 µM (top of the series) unless noted;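 also: compound given together with 17beta-estradiol as the ER stimulus; potency is read from the fitted curve at half-maximal effect; nearly all actives have a fitted effect of over 45% in size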
# [13] = qHTS assay to identify small molecule antagonists of the estrogen receptor alpha (ER-alpha) signaling pathway - cell viability counter screen (AID 743074; calls by dose curve;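 also: HEK293 cells carrying ER-alpha-UAS-bla reporter stimulated with 17beta-estradiol; potency is read from the fitted curve at half-maximal effect; nearly all actives have a fitted effect of over 45% in size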)
# [14] = qHTS assay to identify small molecule antagonists of the thyroid receptor (TR) signaling pathway (AID 743065); also: nearly all actives have a fitted effect of over 55% in size; also: potency is read from the fitted curve at half-maximal effect
# In short: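 GH3.TRE-Luc rat pituitary cells carrying two TR response elements driving luciferase were plated for 4 h, given compound plus 1 nM T3 (final), and incubated 23.5 h at 37 C. ONE-Glo luminescence measured reporter inhibition; CellTiter-Fluor fluorescence tracked cytotoxicity.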
# [15] = target: Aromatase (Homo sapiens) (UniProt P11511); assay: qHTS assay to identify aromatase inhibitors (AID 743083); conditions: MCF-7 aro ERE, testosterone-driven ERE luciferase, 24 h; activity, negative = inhibition: at 70.3 µM (top of the series); also: potency is read from the fitted curve at half-maximal effect; nearly all actives have a fitted effect of over 55% in size
# Chain of UniProt P11511 (P11511 whole entry, looked up): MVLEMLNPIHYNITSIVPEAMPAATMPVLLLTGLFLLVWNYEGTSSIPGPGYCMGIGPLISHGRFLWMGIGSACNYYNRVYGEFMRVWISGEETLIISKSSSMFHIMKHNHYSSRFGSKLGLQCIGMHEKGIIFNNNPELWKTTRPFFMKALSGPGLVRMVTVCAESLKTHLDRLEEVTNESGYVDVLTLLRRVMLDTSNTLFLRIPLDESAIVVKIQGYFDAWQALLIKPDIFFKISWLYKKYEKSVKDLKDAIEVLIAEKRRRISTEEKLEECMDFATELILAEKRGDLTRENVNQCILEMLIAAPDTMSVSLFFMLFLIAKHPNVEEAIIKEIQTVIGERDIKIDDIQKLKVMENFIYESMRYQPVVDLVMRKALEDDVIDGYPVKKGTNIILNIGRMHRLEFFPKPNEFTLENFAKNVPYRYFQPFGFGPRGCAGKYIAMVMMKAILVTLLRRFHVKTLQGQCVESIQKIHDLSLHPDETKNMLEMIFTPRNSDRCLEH
# [16] = activity change, negative = inhibition: at 58.5 µM (top of the series) unless noted
# Tags tell the direction and shape of the fitted curve or compound fluorescence and quenching.
smiles,measurement,setting,value
Clc1ccc2cc3ccccc3cc2c1,"activity change, negative = inhibition",[1]; [16],inconclusive: 11.7%
same,Potency,[2],inactive
same,Potency,[3],"inconclusive: 13.8 µM [fluorescent, partial curve, poor fit]"
same,activation,[4],inconclusive: 8.66% [phenotype inactive]
same,Potency,[5],"inconclusive: 68.5 µM [rising, single point]"
O=C(Cl)c1ccc([N+](=O)[O-])cc1,Potency,[1]; [16],inactive
same,activation,[6],inconclusive: 6.82%
same,Potency,[7],"inconclusive: 53.5 µM [activator, partial curve]"
same,Potency,[8],inactive
CC(=O)OCC=C(C)C,Potency,[1]; [16],inactive
same,Potency,[9],inactive
same,Potency,[10],inactive
OCC1CCCO1 (centres undefined),"activity change, negative = inhibition",[1]; at 58.5 µM (top of the series),inconclusive: 8.25%
same,"activity change, negative = inhibition",[1]; at 78.9 µM (top of the series),inconclusive: 3.78%
same,Potency,[6],inactive
same,Potency,[3],inactive
OCCN(CCO)c1nc(N2CCCCC2)c2nc(N(CCO)CCO)nc(N3CCCCC3)c2n1,Potency,[1]; [16],"inconclusive: 23.9 µM [rising, partial curve]"
same,Potency,[6],"inconclusive: 26.8 µM [fluorescent, partial curve]"
same,Potency,[11],"inconclusive: 17.6 µM [rising, partial curve]"
same,Potency,[9],inactive
same,Potency,[2],"inconclusive: 23.7 µM [rising, partial curve]"
same,Potency,[10],inconclusive: 21.3 µM [fluorescent]
same,Potency,[3],"inconclusive: 19 µM [fluorescent, partial curve]"
same,Potency,[4],"inconclusive: 33.5 µM [inhibitor, single point]"
same,Potency,[12],"inconclusive: 23.7 µM [rising, partial curve]"
CCCCCCCCCOC(=O)c1ccccc1C(=O)OCCCCCCCCC,"activity change, negative = inhibition",[1]; [16],inconclusive: -33.2%
same,Potency,[10],inactive
same,Potency,[3],inactive
Cc1ncc([N+](=O)[O-])n1CC(O)CCl (centres undefined),activation,[6],inconclusive: 0.147% [at 29.2 µM]
CCCCCCCC/C=C\CCCCCCCC(N)=O,Potency,[6],inactive
same,Potency,[2],"inconclusive: 68.5 µM [rising, single point]"
CCc1ccccc1,Potency,[2],"inconclusive: 54.9 µM [rising, partial curve]"
CCOC(=O)CC1(C)OCC(C)O1 (centres undefined),Potency,[11],inactive
same,Potency,[4],inactive
CN(C)CCN(Cc1ccccc1)c1ccccn1,Potency,[2],inactive
CCOCCn1c(N2CCCN(C)CC2)nc2ccccc21,activation,[6],inconclusive: 17.4%
same,Potency,[13],"inconclusive: 952 nM [rising, full curve, poor fit]"
Cc1cc(S(=O)(=O)O)c(N)cc1Cl,Potency,[6],inactive
same,Potency,[10],inactive
O=c1n(CCCN2CCN(c3cccc(Cl)c3)CC2)nc2ccccn12,Potency,[2],"inconclusive: 61.1 µM [cytotoxic, partial curve, poor fit]"
C1CCCCC1,Potency,[2],"inconclusive: 14.1 µM [rising, partial curve]"
CCCCOC(=O)CCCCCCCCC(=O)OCCCC,Potency,[2],"inconclusive: 17.2 µM [rising, full curve, poor fit]"
CC(C)(C)N(CCO)CCO,Potency,[2],"inconclusive: 63.1 µM [rising, partial curve, poor fit]"
CC1=NN(c2ccc(S(=O)(=O)O)cc2)C(=O)C1N=Nc1ccccc1 (centres undefined),Potency,[11],"inconclusive: 54.5 µM [cytotoxic, partial curve, poor fit]"
same,Potency,[2],"inconclusive: 68.6 µM [cytotoxic, single point]"
same,Potency,[14],inactive
same,Potency,[12],"inconclusive: 61.1 µM [cytotoxic, partial curve]"
Cc1cc2c(cc1C(F)(F)F)N(C(=O)Nc1ccc(Oc3cccnc3C)nc1)CC2,Potency,[11],"inconclusive: 62 µM [cytotoxic, single point]"
same,Potency,[4],"inconclusive: 24.7 µM [inhibitor, partial curve]"
same,Potency,[5],"inconclusive: 62 µM [falling, partial curve]"
same,Potency,[15],"inconclusive: 24.7 µM [inhibitor, single point]"
CCN(CC)C(C)=O,Potency,[2],inactive
COc1ccc2cc3[n+](cc2c1OC)CCc1cc2c(cc1-3)OCO2,Potency,[2],"inconclusive: 69.1 µM [cytotoxic, single point]"
same,Potency,[14],"inconclusive: 23.7 µM [inhibitor, partial curve] and active: 61.6 µM"
same,Potency,[10],"inconclusive: 6.74 µM [fluorescent, full curve, poor fit] and inconclusive: 6.97 µM [fluorescent, full curve]"
same,Potency,[13],"inconclusive: 9.52 µM [cytotoxic, full curve] and inconclusive: 1.39 µM [cytotoxic, full curve]"
same,Potency,[4],"inconclusive: 13.3 µM [inhibitor, partial curve] and inconclusive: 15.5 µM [inhibitor, partial curve]"
same,Potency,[5],active: 26.6 µM and inconclusive: 12.3 µM
same,Potency,[12],"inconclusive: 7.5 µM [cytotoxic, partial curve] and inconclusive: 13.8 µM [cytotoxic, full curve]"
